The full ranking holds about 33,000 sequences; the median of “E-score (-0.5 to 0.5)” is about -0.016, and the highest 2% start at about 0.31. The list shows a part of the results.
target: Cst6 (UniProt P40535); test: PBM E-score (8-mer binding enrichment) (E-score (-0.5 to 0.5)); higher = stronger / more preferred TF binding; most listed sequences are background and not binding sites; conditions: protein concentration: 200 nM; construct: GST-DNA-binding domain
Protocol: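 Universal 'all 10-mer' protein binding microarrays (Agilent AMADID 015681) probed with GST-tagged S. cerevisiae TFs (full-length or DBD) made by in vitro transcription/translation (PURExpress), about 100-200 nM. Bound TF was detected with fluorescent anti-GST. Each ungapped 8-mer (which stands for itself and its reverse complement) is scored by the PBM enrichment score (E-score), a modified Wilcoxon-Mann-Whitney statistic from -0.5 to +0.5, computed with the Universal PBM Analysis Suite. Scale: above 0.35 generally sequence-specific binding.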

Row | Sequence | PBM E-score
1 | ATGTAGTA | 0.164
2 | CGGCCCCC | -0.278
3 | TGTTGAAA | 0.211
4 | CTTTAGGA | -0.0677
5 | CTAACCCA | 0.0583
6 | TGTGAGAA | 0.0607
7 | TCCACCCA | -0.0754
8 | GAGAGTCA | 0.0642
9 | ACGGGATC | -0.0861
10 | TACGTGAA | 0.175
11 | CTAAGGGA | -0.203
12 | AGCGGTCC | -0.134
13 | AATGCCTG | -0.165
14 | CTACTCAG | -0.264
15 | GCGGCCTA | -0.243
16 | AACAAGAG | 0.00218
17 | CATGCCAC | -0.0308
18 | AAAATTAA | 0.115
19 | CTTTCACA | 0.106
20 | GCCCTTAA | -0.0936
21 | GAAGGGTC | -0.209
22 | AGCGGCGC | 0.107
23 | CGACATCA | 0.411
24 | GGGAGCCA | -0.239

Row | Sequence | PBM E-score
25 | AGATAGTA | 0.162
26 | AGACATAT | 0.179
27 | CACTCGTC | 0.143
28 | GAACTACA | -0.0775
29 | GTGATCCA | -0.1
30 | AAAGCCGG | 0.0174
31 | CCCGACGG | -0.119
32 | ATAAGTTC | 0.00517
33 | TATCGCCA | 0.104
34 | CATCACAA | 0.239
35 | TATCGACA | 0.106
36 | ACAAGTCT | 0.0665
37 | ACCGGAGT | -0.141
38 | GGCTTTAC | 0.0405
39 | AGGAGAAA | -0.144
40 | CTCTATGA | 0.142
41 | AAATTGCG | 0.11
42 | AATAGACA | -0.00652
43 | GACCACTA | -0.0607
44 | GTGTACAA | 0.178
45 | ATCAGTCA | 0.0916
46 | ATGAACTC | 0.0354
47 | CTCTTAGC | -0.0589
48 | GAATAACA | 0.245

Row | Sequence | PBM E-score
49 | AGGTTTGG | -0.0956
50 | ACAAGTCC | -0.145
51 | ATCTAGAT | -0.0474
52 | CAGTGCCA | -0.186
53 | CTATGTAC | 0.00385
54 | GAGACGGC | 0.196
55 | CGGCACCA | 0.246
56 | GATTAAGA | 0.155
57 | GGATCAGA | -0.172
58 | AATACCAA | 0.0926
59 | AACTAATC | 0.0271
60 | ATTACCAC | 0.123
61 | AGGAAAAT | 0.0101
62 | AATATATC | 0.252
63 | GAAGCTTA | -0.0667
64 | AACTGACA | 0.0859
65 | GAACGGTC | -0.223
66 | TCTTTTCA | 0.122
67 | ACGCTCCC | -0.0891
68 | AAGCCATA | -0.0493
69 | TATCCGGA | -0.0526
70 | CCACAACG | -0.0524
71 | GCCGTAAA | 0.243
72 | CCGGGGCG | -0.191

Row | Sequence | PBM E-score
73 | CAATCGTG | -0.0331
74 | CATCCACG | 0.167
75 | GCCATGCA | 0.0901
76 | ATTCTTTA | 0.173
77 | CAGAGCTG | -0.13
78 | AATCAGAC | 0.067
79 | CTGGGAAA | -0.0122
80 | AGTCATAA | 0.217
81 | GGAGAAAA | -0.00826
82 | AGATGACA | 0.283
83 | TCATCTAA | 0.259
84 | AGATTGCG | -0.0616
85 | GCGCGCTA | 0.00364
86 | GTATCTCA | 0.23
87 | CACCGTCA | 0.314
88 | GGTCGAAC | -0.0955
89 | AAGGTCGA | -0.0293
90 | GGTAGTAA | -0.113
91 | CAGTGGCC | -0.153
92 | CCCCTTGC | -0.298
93 | CAAATAGC | 0.128
94 | CTCCTGTA | 0.0204

Source: the supplement of paper PMC3334620
